The values that follow come from a collection of fitness landscapes (doi:10.1126/science.1257360).

The list shows a part of the results.

To fix the notation:
B1: PhoQ; a variant is named by its letters at X, in order, P23837 (parent)
chain: MKKLLRLFFPLSLRVRFLLATAAVVLVLSLAYGMVALIGYSVSFDKTTFRLLRGESNLFYTLAKWENNKLHVELPENIDKQSPTMTLIYDENGQLLWAQRDVPWLMKMIQPDWLKSNGFHEIEADVNDTSLLLSGDHSIQQQLQEVREDDDDAEMTHSVAVNVYPATSRMPKLTIVVVDTIPVELKSSYMVWSWFIYVLSANLLLVIPLLWVAAWWSLRPIEALAKEVRELEEHNRELLNPATTRELTSLVRNLNRLLKSERERYDKYRTTLTDLTHSLKTPLXXLQXXLRSLRSEKMSVSDAEPVMLEQISRISQQIGYYLHRASMRGGTLLSRELHPVAPLLDNLTSALNKVYQRKGVNISLDISPEISFVGEQNDFVEVMGNVLDNACKYCLEFVEISARQTDEHLYIVVEDDGPGIPLSKREVIFDRGQRVDTLRPGQGVGLAVAREITEQYEGKIVAGESMLGGARMEVIFGRQHSAPKDE

This assay covers variants of B1. The assay can be described thus: enrichment ratio after two sorts for PhoP signalling (ratio (wild type AVST 3.29)); higher = more functional. The note with it: with PhoP (E. coli).
As to GNVV, the enrichment ratio turned out to be 5.22.
Turning to SYAI, the enrichment ratio was determined as 0.31.
Turning to FWPE, the enrichment ratio is no more than 0.25.
The result for NVEF reads no more than 0.25; that for NRMD, no more than 0.25.
With FPWH, the enrichment ratio is no more than 0.25.
FVNS: the enrichment ratio is no more than 0.25.
Consider LLFG, for which the enrichment ratio is no more than 0.25.
Consider WQKK, for which the enrichment ratio was no more than 0.25.
With EEMS, the enrichment ratio is no more than 0.25.
For the variant LEWM, the enrichment ratio came out at 5.44.
The result for IVLF reads no more than 0.25; that for HPHP, no more than 0.25; that for RMYD, no more than 0.25.
Regarding NAFR, the enrichment ratio is no more than 0.25.
The result for FEQR reads no more than 0.25; that for PSNV, no more than 0.25.
As to VRNS, the enrichment ratio is no more than 0.25.
With SGED, the enrichment ratio was no more than 0.25.
Consider YIVL, for which the enrichment ratio is no more than 0.25.
As to NNPL, the enrichment ratio is no more than 0.25.
On to IRES, for which the enrichment ratio is no more than 0.25.
For the variant CFCR, the enrichment ratio was no more than 0.25.
Turning to VLIV, the enrichment ratio is no more than 0.25.
Take DLVM: the enrichment ratio was no more than 0.25.
As for FVVV, the figure is no more than 0.25; as for IDWI, no more than 0.25.
Regarding DVEH, the enrichment ratio was no more than 0.25.
As for MCIL, the enrichment ratio was no more than 0.25.
Consider DGGQ, for which the enrichment ratio is no more than 0.25.
For the variant EVCH, the enrichment ratio is no more than 0.25.
As for TWVA, the enrichment ratio is no more than 0.25.
For the variant PILN, the enrichment ratio is no more than 0.25.
With FHNV, the enrichment ratio is no more than 0.25.
In the case of RCCW, the enrichment ratio is no more than 0.25.
On to LLDV, for which the enrichment ratio was no more than 0.25.
Turning to YRRD, the enrichment ratio was no more than 0.25.
Regarding PYHG, the enrichment ratio is no more than 0.25.
For NKWK, the enrichment ratio was no more than 0.25.
With IYCA, the enrichment ratio is no more than 0.25.
In the case of PQIN, the enrichment ratio is no more than 0.25.
KKIN: the enrichment ratio is no more than 0.25.
As for STTI, the figure is 5.62.
Consider PKKY, for which the enrichment ratio was no more than 0.25.
For PLLM, the enrichment ratio is no more than 0.25.
As for MTWN, the figure is no more than 0.25; as for WQIE, no more than 0.25; as for SCWM, no more than 0.25.
For LCMF, the enrichment ratio was no more than 0.25.
As for KDAG, the figure is no more than 0.25.
As for PAMV, the figure is no more than 0.25; as for NTPR, no more than 0.25.
The result for PHFC reads no more than 0.25; that for DWKA, no more than 0.25; that for KHNQ, no more than 0.25.
Regarding SSCS, the enrichment ratio was 9.51.
As for EDDV, the enrichment ratio is no more than 0.25.
As for QSML, the figure is 3.2.
QLYW: the enrichment ratio is no more than 0.25.
In the case of WLSQ, the enrichment ratio was no more than 0.25.
In the case of IIPF, the enrichment ratio was no more than 0.25.
Take IQNT: the enrichment ratio was no more than 0.25.
FLSP: the enrichment ratio is no more than 0.25.
For IIIT, the enrichment ratio is no more than 0.25.
As for MWGV, the figure is no more than 0.25; as for KPIP, no more than 0.25.
For the variant WALN, the enrichment ratio was no more than 0.25.
For MWFC, the enrichment ratio was 1.61.
As to DCNR, the enrichment ratio is no more than 0.25.
For QSSE, the enrichment ratio was determined as 1.95.
Consider FAML, for which the enrichment ratio worked out at 6.33.
SMFD: the enrichment ratio is no more than 0.25.
The result for AKVC reads 15.3; that for DEVI, no more than 0.25; that for EMQQ, no more than 0.25.
In the case of YIVI, the enrichment ratio is no more than 0.25.
In the case of LYWL, the enrichment ratio came to 0.729.
As for NDHE, the enrichment ratio is no more than 0.25.
As for FMRG, the figure is 0.252.
As for VPTW, the enrichment ratio was no more than 0.25.
Take NMMI: the enrichment ratio was no more than 0.25.
On to FMTN, for which the enrichment ratio is no more than 0.25.
For the variant HMIF, the enrichment ratio was no more than 0.25.
On to PFLL, for which the enrichment ratio is no more than 0.25.
LLWH: the enrichment ratio was no more than 0.25.
As for RQLM, the figure is no more than 0.25; as for VRVW, no more than 0.25.
As to VHDE, the enrichment ratio was no more than 0.25.
As to AQGV, the enrichment ratio was no more than 0.25.
In the case of MTIP, the enrichment ratio is no more than 0.25.
With DFSM, the enrichment ratio was no more than 0.25.
On to NVDT, for which the enrichment ratio was no more than 0.25.
With FETG, the enrichment ratio is no more than 0.25.
As for HYLA, the figure is no more than 0.25; as for MYVV, no more than 0.25.
Regarding PAKM, the enrichment ratio is no more than 0.25.
Take TNYF: the enrichment ratio was no more than 0.25.
In the case of ALDF, the enrichment ratio is no more than 0.25.
Take WKIN: the enrichment ratio was no more than 0.25.
With HEFV, the enrichment ratio was no more than 0.25.
On to NHVV, for which the enrichment ratio was no more than 0.25.
As for PCGN, the enrichment ratio is no more than 0.25.
LPFD: the enrichment ratio was no more than 0.25.
LNEG: the enrichment ratio is no more than 0.25.
FAFL: the enrichment ratio stood at 0.458.
Take FACQ: the enrichment ratio was no more than 0.25.
As for RPVQ, the figure is no more than 0.25; as for IMFQ, no more than 0.25; as for LMDT, no more than 0.25.
On to GWKR, for which the enrichment ratio was no more than 0.25.
GVRA: the enrichment ratio is no more than 0.25.
Take SQQR: the enrichment ratio was no more than 0.25.
On to FPHK, for which the enrichment ratio was no more than 0.25.
In the case of EYFD, the enrichment ratio is no more than 0.25.
FTIY: the enrichment ratio is no more than 0.25.
Regarding WDAN, the enrichment ratio is no more than 0.25.
For AYIH, the enrichment ratio is no more than 0.25.
On to GGLD, for which the enrichment ratio was no more than 0.25.
As for TPWG, the figure is no more than 0.25.
As for FKPF, the enrichment ratio is no more than 0.25.
For GHLE, the enrichment ratio is no more than 0.25.
Take KTYV: the enrichment ratio is no more than 0.25.
As for PARG, the figure is no more than 0.25.
As for NCSN, the figure is no more than 0.25; as for LPKV, no more than 0.25.
Consider WREP, for which the enrichment ratio is no more than 0.25.
As for LYTV, the figure is no more than 0.25; as for KYKL, no more than 0.25.
Regarding IQTM, the enrichment ratio was no more than 0.25.
Regarding SIGL, the enrichment ratio turned out to be 5.15.
For the variant IKTP, the enrichment ratio is no more than 0.25.
In the case of IHQR, the enrichment ratio is no more than 0.25.
As for YSAW, the enrichment ratio was no more than 0.25.
With RKMC, the enrichment ratio is no more than 0.25.
On to GMSR, for which the enrichment ratio was no more than 0.25.
The result for WWCR reads no more than 0.25; that for ETFN, no more than 0.25.
Take MIPL: the enrichment ratio was no more than 0.25.
Turning to IAKV, the enrichment ratio is no more than 0.25.
Consider RWWT, for which the enrichment ratio is no more than 0.25.
As for LRCG, the enrichment ratio was no more than 0.25.
As for CIPI, the figure is no more than 0.25; as for AILD, no more than 0.25; as for KDQE, no more than 0.25.
Take NNDY: the enrichment ratio was no more than 0.25.
Regarding VQTM, the enrichment ratio is no more than 0.25.
As for LFAE, the figure is no more than 0.25; as for LLYK, no more than 0.25; as for SRLM, 8.53.
Take SLPE: the enrichment ratio is no more than 0.25.
On to NYHA, for which the enrichment ratio was no more than 0.25.
For the variant HIAF, the enrichment ratio is no more than 0.25.
Consider PVQC, for which the enrichment ratio was no more than 0.25.
